The assay has as its target T1, hIL-13Rα2.Fc fusion polypeptide (soluble human IL-13Rα2 extracellular domain fused to hinge-CH2-CH3 of human … (human)).
T1 construct: The dimer is described as the main active form; also called sIL-13Rα2.Fc; human s13Rα2.Fc
In words: co-expressed complex held on a Protein A column, MgCl2 wash, SEC-HPLC of dissociated IL-13. The procedure:
The ability of hIL-13Rα2.Fc to dissociate from a coexpressed wild-type, R127D or R127P IL-13 ligand was next examined. Dissociation was assessed by determining the ability of MgCl2 to dissociate IL-13 from a IL-13-hIL-13Rα2.Fc complex. Conditioned media from cells coexpressing hIL-13Rα2.Fc fusion polypeptide with wild-type or mutant hIL-13 was purified on a Protein A column in the presence of increasing concentrations of MgCl₂. The amount of dissociated IL-13 at each MgCl₂ concentration was then measured.

B1: human IL-13 (wild-type) (ligand)
chain: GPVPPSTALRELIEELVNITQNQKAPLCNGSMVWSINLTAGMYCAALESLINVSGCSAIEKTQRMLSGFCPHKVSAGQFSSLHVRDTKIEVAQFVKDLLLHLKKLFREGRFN
notes: also called hIL-13; wild-type human IL-13
Turning to B1, the binding result is “binds”.
